Measurements: the supplement of paper PMC10670038
Structures can show the parent of a compound that is named as a salt. ± gives the standard deviation of the averaged measurements. The full ranking holds about 2,000 compounds; the median of “relative cell viability vs DMSO, compound alone” is about 1.1, and the lowest 2% start at about 0.29. Some of the results follow.

system: TE10; assay: relative cell viability vs DMSO, compound alone (fraction); TE10 is an esophageal squamous carcinoma line; higher = less cytotoxic; details: 2 µM; 48 h
Description: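 TE10 ESCC cells (1,000/well, 384-well plates) were treated with Selleck bioactive library compounds at 2 uM alone for 48 h. Viability was read by CellTiter-Glo and expressed relative to DMSO wells. Two technical replicates (A, B).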

| SMILES | relative cell viability |
| --- | --- |
| Clc1ccc2nsnc2c1NC1=NCCN1 [Tizanidine HCl] | 1.18 ± 0.021 |
| Cc1cc(Nc2cc(N3CCN(C)CC3)nc(Sc3ccc(NC(=O)C4CC4)cc3)n2)n[nH]1 [VX-680 (Tozasertib, MK-0457)] | 1.03 ± 0.014 |
| Cc1cc(C(C)Nc2ccccc2)c2nc(N3CCOCC3)cc(=O)n2c1 (stereo unspecified) | 1.13 ± 0.1 |
| NC1(Cc2ccc(Cl)cc2)CCN(c2ncnc3[nH]ccc23)CC1 | 0.818 ± 0.13 |
| CCOC(=O)C1=C(N)Oc2ccc(Br)cc2C1C(C#N)C(=O)OCC (stereo unspecified) | 1.12 ± 0.11 |
| O=[N+]([O-])c1ccc(Nc2nc(N3CCOCC3)nc(N3CCOCC3)n2)cc1 | 1.12 ± 0.012 |
| CCCCOc1cc(C(=O)OCCN(CC)CC)ccc1N [Oxybuprocaine HCl] | 1.13 ± 0.049 |
| O=C1O[C@H]([C@@H](O)CO)C([O-])=C1O.[Na+] [Sodium ascorbate] | 1.12 ± 0.076 |
| N#C/C(=C1/SC[C@@H](c2ccc(Cl)cc2Cl)S1)n1ccnc1 [Luliconazole] | 1.1796 ± 0.00042 |
| NC(=O)C1CCCc2c1[nH]c1ccc(Cl)cc21 (stereo unspecified) [EX 527 (Selisistat)] | 0.983 ± 0.2 |
| COC(=O)[C@H](Cc1ccccc1)NC(=O)[C@@H](N)CC(=O)O [Aspartame] | 1.06 ± 0.036 |
| CCS(=O)(=O)c1cccc(-c2cc(C(=O)NC3CCN(C)CC3)c(C)c3[nH]c4ncc(C)cc4c23)c1 | 0.719 ± 0.011 |
| Clc1ccc(C2(c3ccc(-c4cn[nH]c4)cc3)CCNCC2)cc1 | 0.907 ± 0.011 |
| CNC(=O)[C@@H](NC(=O)[C@H](CC(C)C)[C@H](O)C(=O)NO)C(C)(C)C [Marimastat(BB-2516)] | 1.05 ± 0.073 |
| C[C@]12CC[C@@H]3c4ccc(O)cc4C[C@@H](CCCCCCCCC[S+]([O-])CCCC(F)(F)C(F)(F)F)[C@H]3[C@@H]1CC[C@@H]2O (stereo partly specified) [Fulvestrant] | 1.21 ± 0.051 |
| C=C[C@](C)(O)CC[C@@H]1[C@@]2(C)CCCC(C)(C)[C@@H]2CC[C@@]1(C)O [Sclareol] | 1.17 ± 0.031 |
| O=C(O)c1cccc(-c2noc(-c3ccccc3F)n2)c1 [Ataluren (PTC124)] | 0.55 ± 0.02 |
| Nc1ccc(S(=O)(=O)Nc2nccs2)cc1 [Sulfathiazole] | 1.15 ± 0.033 |
| Cc1ccc(-c2cc(C(F)(F)F)nn2-c2ccc(S(N)(=O)=O)cc2)cc1 [Celecoxib] | 1.17 ± 0.14 |
| CC(C)[N+]1(C)[C@@H]2CC[C@H]1C[C@@H](OC(=O)C(CO)c1ccccc1)C2 (stereo partly specified) [Ipratropium Bromide] | 1.05 ± 0.11 |
| O=C1C(Cl)=C(N2CCOCC2)C(=O)N1c1ccc(Cl)c(Cl)c1 | 1.13 ± 0.034 |
| OCCn1cc(-c2ccc3c(c2)CC/C3=N\O)c(-c2ccncc2)n1 | 1.156 ± 0.01 |
| CN1CCc2nc(C(=O)N[C@@H]3C[C@@H](C(=O)N(C)C)CC[C@@H]3NC(=O)C(=O)Nc3ccc(Cl)cn3)sc2C1 [Edoxaban] | 1.09 ± 0.014 |
| CCn1c(N)c(C(=O)NC)c(=O)c2ccc(C#CC(C)(O)COC)nc21 (stereo unspecified) | 0.979 ± 0.17 |

| SMILES | relative cell viability |
| --- | --- |
| CC[C@H]1OC(=O)[C@H](C)[C@@H](O[C@H]2C[C@@](C)(OC)[C@@H](O)[C@H](C)O2)[C@H](C)[C@@H](O[C@@H]2O[C@H](C)C[C@H](N(C)C)[C@H]2O)[C@](C)(O)C[C@@H](C)CN(C)[C@H](C)[C@@H](O)[C@]1(C)O [Azithromycin] | 0.888 ± 0.054 |
| CC[C@H]1OC(=O)[C@H](C)[C@@H](O[C@H]2C[C@@](C)(OC)[C@@H](O)[C@H](C)O2)[C@H](C)[C@@H](O[C@@H]2O[C@H](C)C[C@H](N(C)C)[C@H]2O)[C@](C)(O)C[C@@H](C)CN(C)[C@H](C)[C@@H](O)[C@]1(C)O [Azithromycin Dihydrate] | 1.09 ± 0.049 |
| CN[C@H]1CC[C@@H](c2ccc(Cl)c(Cl)c2)c2ccccc21 [Sertraline HCl] | 0.99 ± 0.021 |
| NC[C@H](O)c1ccc(O)c(O)c1 [Noradrenaline bitartrate monohydrate] | 1.06 ± 0.025 |
| CCN(CC)CCNC(=O)c1ccc(N)cc1 [Procainamide HCl] | 1.06 ± 0.059 |
| CC(C=CC1(O)C(C)=CC(=O)CC1(C)C)=CC(=O)O (stereo unspecified) [Abscisic Acid (Dormin)] | 1.153 ± 0.0068 |
| C=C[C@]1(C)C[C@@H](OC(=O)CSC(C)(C)CNC(=O)[C@H](N)C(C)C)[C@]2(C)[C@H](C)CC[C@]3(CCC(=O)[C@H]32)[C@@H](C)[C@@H]1O [Valnemulin HCl] | 1.17 ± 0.072 |
| Cc1c(-c2ccc(O)cc2)n(Cc2ccc(OCCN3CCCCCC3)cc2)c2ccc(O)cc12 [Bazedoxifene HCl] | 0.935 ± 0.041 |
| CCc1cc2c(cc1CC)CC(NC[C@H](O)c1ccc(O)c3[nH]c(=O)ccc13)C2 [Indacaterol Maleate] | 1.15 ± 0.066 |
| CNC(=O)c1ccc(N2C(=S)N(c3ccc(C#N)c(C(F)(F)F)c3)C(=O)C2(C)C)cc1F [Enzalutamide (MDV3100)] | 0.897 ± 0.093 |
| CCCc1ccc(OCC(=O)N(Cc2nc(-c3cccnc3)no2)C(C)C)cc1 | 1.13 ± 0.076 |
| COc1cc(OC)c(NC(=O)Nc2cc(C)on2)cc1Cl | 1.13 ± 0.043 |
| COc1cc2nc(N3CCN(C(=O)C4COc5ccccc5O4)CC3)nc(N)c2cc1OC (stereo unspecified) [Doxazosin Mesylate] | 1.3 ± 0.035 |
| N#C/C(=C(/N)Sc1ccc(N)cc1)c1ccccc1C(F)(F)F | 1.13 ± 0.051 |
| NC[C@@](O)(c1ccc(Cl)cc1)c1ccc(-c2cn[nH]c2)cc1 | 0.94 ± 0.0015 |
| O=c1c(O)c(-c2ccc(O)cc2)oc2cc(O)cc(O)c12 [Kaempferol] | 1.14 ± 0.054 |
| CCN(CC)C(=O)C1(c2ccccc2)CC1CN (stereo unspecified) [Milnacipran HCl] | 1.01 ± 0.048 |
| Cc1cc(C(C)(C)C)cc(C)c1CC1=NCCN1 [Xylometazoline HCl] | 1.11 ± 0.037 |
| COc1cc(NC(=O)c2ccccn2)ccc1Cl | 1.01 ± 0.05 |
| CCN(CC)CCOCCOC(=O)C1(c2ccccc2)CCCC1 [Pentoxyverine Citrate] | 1.13 ± 0.073 |
| CC#CCn1c(N2CCC[C@@H](N)C2)nc2c1c(=O)n(Cc1nc(C)c3ccccc3n1)c(=O)n2C [Linagliptin] | 1.09 ± 0.041 |
| O=C(/C=C/c1cccc(S(=O)(=O)Nc2ccccc2)c1)NO [Belinostat (PXD101)] | 0.216 ± 0.0062 |
| CNC(=O)c1c(F)cccc1Nc1nc(Nc2cc3c(cc2OC)CCN3C(=O)CN(C)C)nc2[nH]ccc12 | 1.06 ± 0.052 |
| CC(C)(C)c1cc(NC(=O)Nc2ccc(-c3cn4c(n3)sc3cc(OCCN5CCOCC5)ccc34)cc2)no1 [Quizartinib (AC220)] | 0.594 ± 0.04 |

| SMILES | relative cell viability |
| --- | --- |
| CC1(C)Cc2c(-c3ccccc3)c(-c3ccc(Cl)cc3)c(CC(=O)O)n2C1 [Licofelone] | 1.052 ± 0.0016 |
| CN1CCN2c3ncccc3Cc3ccccc3C2C1 (stereo unspecified) [Mirtazapine] | 0.865 ± 0.018 |
| CC[C@H](NC(=O)[C@H](C)NC)C(=O)N1C[C@@H](O)C[C@H]1Cc1c(-c2[nH]c3cc(F)ccc3c2C[C@@H]2C[C@H](O)CN2C(=O)[C@H](CC)NC(=O)[C@H](C)NC)[nH]c2cc(F)ccc12 [Birinapant] | 0.801 ± 0.017 |
| CC(C)N(CC[C@H](c1ccccc1)c1cc(CO)ccc1O)C(C)C | 1.08 ± 0.014 |
| CC(C)[C@H](N)C(=O)OCCOCn1cnc2c(=O)nc(N)[nH]c21 [Valaciclovir HCl] | 0.904 ± 0.03 |
| Cc1cc(C)nc(NS(=O)(=O)c2ccc(N)cc2)n1 [Sulfamethazine] | 1.1 ± 0.044 |
| CC1(C)O[C@@H]2C[C@H]3[C@@H]4C[C@H](F)C5=CC(=O)C=C[C@]5(C)[C@@]4(F)[C@@H](O)C[C@]3(C)[C@]2(C(=O)CO)O1 [Fluocinolone Acetonide] | 0.997 ± 0.025 |
| CC(C)(Oc1ccc(Cl)cc1)C(=O)OCCOC(=O)c1cccnc1 [Etofibrate] | 1.06 ± 0.026 |
| CCn1c(=O)c2c(nc(/C=C/c3ccc(OC)c(OC)c3)n2C)n(CC)c1=O [Istradefylline] | 1.17 ± 0.08 |
| CC(C(O)c1ccc(O)cc1)N1CCC(Cc2ccccc2)CC1 (stereo unspecified) [Ifenprodil Tartrate] | 0.999 ± 0.018 |
| C[C@@H]1C/C=C/C=C/C=C/C=C/[C@H](O[C@@H]2O[C@H](C)[C@@H](O)[C@H](N)[C@@H]2O)C[C@@H]2O[C@](O)(C[C@@H](O)C[C@H]3O[C@@H]3/C=C/C(=O)O1)C[C@H](O)[C@H]2C(=O)O [Natamycin] | 1.24 ± 0.018 |
| Nc1nc(=O)n([C@@H]2CS[C@H](CO)O2)cc1F [Emtricitabine] | 1.06 ± 0.076 |
| COc1ccc(Cl)cc1C(=O)NCCc1ccc(S(=O)(=O)NC(=O)NC2CCCCC2)cc1 [Glyburide] | 1.05 ± 0.035 |
| CC[C@@H]1C(=O)N(C)c2cnc(Nc3ccc(C(=O)N[C@H]4CC[C@H](N5CCN(CC6CC6)CC5)CC4)cc3OC)nc2N1C(C)C [Volasertib (BI 6727)] | 0.771 ± 0.011 |
| CCc1cccc(CC)c1NC(=O)N1Cc2[nH]nc(NC(=O)c3ccc(N4CCN(C)CC4)cc3)c2C1 | 1.06 ± 0.054 |
| CC#C[C@]1(O)CC[C@H]2[C@@H]3CCC4=CC(=O)CCC4=C3[C@@H](c3ccc(N(C)C)cc3)C[C@@]21C [Mifepristone] | 0.976 ± 0.051 |
| COC(=O)C1=CO[C@@H](O)[C@@H]2C(CO)=CC[C@H]12 [Genipin] | 1.1 ± 0.047 |
| Cc1nc(C(=O)NCC(=O)O)c(O)c2ccc(Oc3ccccc3)cc12 | 0.905 ± 0.26 |
| CCOC(=O)C1=C(N)Oc2ccc(Cl)cc2C1C(C#N)C(=O)OCC (stereo unspecified) | 1.12 ± 0.035 |
| COc1cccc2c1C(=O)c1c(O)c3c(c(O)c1C2=O)C[C@@](O)(C(=O)CO)C[C@@H]3O[C@H]1C[C@H](N)[C@H](O[C@@H]2CCCCO2)[C@H](C)O1 [Pirarubicin] | 0.5943 ± 0.0018 |
| CCCCCCNC(=O)n1cc(F)c(=O)[nH]c1=O [Carmofur] | 0.971 ± 0.23 |
| C[C@H](CCC(=O)O)[C@H]1CC[C@H]2[C@@H]3C[C@H](O)[C@@H]4C[C@H](O)CC[C@]4(C)[C@H]3CC[C@]12C [Hyodeoxycholic acid (HDCA)] | 1.12 ± 0.015 |
| N=C(N)c1ccc(N=NNc2ccc(C(=N)N)cc2)cc1 [Diminazene Aceturate] | 1.1 ± 0.018 |
